{"source": "PubChem BioAssay AID624296", "about": "(National Center for Advancing Translational Sciences (NCATS), 2012)", "note": "Screen size: about 350,000 compounds; about 9,900 (2.8%) were called active. The inconclusive results got no clear call from the source; some entries with a clear call stand among them for comparison. Calls follow the shape of the dose curve; as a rule, active = well fitted activation curve with a large enough effect; inconclusive = small, poorly fitted or top-dose-only effect; inactive = no such curve, though single readings can be large or run the other way. Potencies of inconclusive entries are left out as doubtful fits. Some structures have more than one record in an assay (separate samples or runs), and their calls can disagree. Potency is read from the fitted curve at half-maximal effect; tags tell the direction and shape of the fitted curve."}
{"assay": "A quantitative high throughput screen for small molecules that induce DNA re-replication in MCF 10a normal breast cells; also: nearly all actives have a fitted effect of over 50% in size; as to activity, positive = re-replication: % of control where 0% means no effect.", "conditions": "MCF 10A DNA re-replication, Hoechst nuclear intensity, 48 h; activity, positive = re-replication: at 46.1 µM (top of the series)"}
{"smiles": "CCC(C)C(NC(=O)c1ccccc1NC(=O)c1ccccc1)C(=O)N1CCOCC1", "note": "(configuration not stated)", "Potency": "inconclusive [activator, partial curve, poor fit]"}
{"smiles": "OCCN1CCN(CCCN2c3ccccc3Sc3ccc(Cl)cc32)CC1", "Potency": "active: 20.6 µM"}
{"smiles": "CC(C)CCC1CC(CSC(=N)N)OC1=O", "note": "(configuration not stated)", "Potency": "inconclusive [activator, single point]"}
{"smiles": "CSC1=NC2(CCCCC2)C2=C(CCCC2)N1", "Potency": "inconclusive [activator, single point]"}
{"smiles": "CCCCCOc1ccc(/C=C/c2c([N+](=O)[O-])c(=O)n(C)c(=O)n2C)cc1", "Potency": "inconclusive [activator, full curve]"}
{"smiles": "Cc1ccc2c(Cl)cc(Cl)c(OCC(=O)Nc3cc(S(=O)(=O)N(C)C)ccc3C)c2n1", "Potency": "inconclusive [activator, full curve, poor fit]"}
{"smiles": "COc1ccc2sc(NC(=O)CC(C)C)nc2c1", "activity, positive = re-replication": "inactive: -1.64%"}
{"smiles": "O=[N+]([O-])c1ccc(N2CCCCC2)c(Cl)c1N1CCCCC1", "Potency": "inconclusive [activator, partial curve]"}
{"smiles": "O=C(Cc1ccccc1)NCc1cccnc1", "activity, positive = re-replication": "inactive: 1.73%"}
{"smiles": "Cc1c(C(=O)NCC2COc3ccccc3O2)oc2ccc(S(=O)(=O)N(C)C3CCCCC3)cc12", "note": "(configuration not stated)", "activity, positive = re-replication": "inactive: 10.3%"}
{"smiles": "CCOC(=O)CSc1nc(C)[nH]c1[N+](=O)[O-]", "Potency": "inconclusive [activator, single point]"}
{"smiles": "CC(=O)c1cccc(NC(=S)NC(=O)c2ccc(Br)cc2)c1", "activity, positive = re-replication": "inactive: 13.3%"}
{"smiles": "O=C(NC(=S)Nc1ccccc1)c1cncc(C#Cc2ccccc2)c1", "activity, positive = re-replication": "inactive: 21.1%"}
{"smiles": "COc1ccccc1NC(=S)NC(=O)CCc1ccccc1", "Potency": "inconclusive [activator, partial curve, poor fit]"}
{"smiles": "CCC1Oc2ccc(C)cc2N(CC(=O)NCCC2=CCCCC2)C1=O", "note": "(configuration not stated)", "Potency": "inconclusive [activator, partial curve, poor fit]"}
{"smiles": "C(#Cc1ccc2c(c1)COc1c3ccccc3nn1-2)c1ccccc1", "Potency": "inconclusive [activator, full curve, poor fit]"}
{"smiles": "Cc1ccc(S(=O)(=O)N(Cc2ccc(Cl)cc2)c2ccccc2C(=O)NCc2cccnc2)cc1", "Potency": "inconclusive [activator, single point]"}
{"smiles": "N#C/C(=C\\c1ccccc1)C(=O)N(c1ccccn1)C1CCCCC1", "Potency": "inconclusive [activator, single point]"}
{"smiles": "O=C(O)CCN1CCc2ccccc2C1c1cccs1", "note": "(configuration not stated)", "Potency": "inconclusive [activator, single point]"}
{"smiles": "CCCc1nc2ccccc2c(C(=O)OCC(=O)NC2CC2)c1CC", "activity, positive = re-replication": "inactive: -2.27%"}
{"smiles": "CCCCNS(=O)(=O)c1ccc2nc(-c3cccnc3)cc(C(=O)NC3CCCC3)c2c1", "Potency": "inconclusive [activator, partial curve, poor fit]"}
{"smiles": "O=C(C1CC1)N1CCc2cc(Br)c(S(=O)(=O)N3CCCCCC3)cc21", "Potency": "inconclusive [activator, single point]"}
{"smiles": "O=c1cc(-c2ccccc2Cl)oc2c(NS(=O)(=O)c3ccccc3OC(F)(F)F)ccc(O)c12", "Potency": "inconclusive [activator, partial curve, poor fit]"}
{"smiles": "CCOC(=O)c1sc(NC(=O)Nc2cccc(Cl)c2)cc1C", "Potency": "inconclusive [activator, single point]"}
{"smiles": "O=C(CSc1n[nH]c(=O)n1C1CC1)c1ccc(F)cc1", "Potency": "inconclusive [activator, partial curve, poor fit]"}
{"smiles": "COc1ccc(OCCNC2CCCC2)cc1", "activity, positive = re-replication": "inactive: -5.4%"}
{"smiles": "COc1ccc(CC(=O)NCc2ccccc2)cc1", "Potency": "active: 7.31 µM"}
{"smiles": "COc1ccc(NC(=O)CCNS(=O)(=O)c2ccc3[nH]c(=O)oc3c2)cc1Cl", "activity, positive = re-replication": "inactive: 2.55%"}
{"smiles": "COc1ccc(-c2cc([C@H]3[C@H]4C=CC[C@@H](C)[C@@H]4C(=O)N3Cc3ccccc3)ccc2F)cc1OC", "Potency": "inconclusive [activator, single point]"}
{"smiles": "COc1cccc(-c2nc(CS(=O)(=O)CC(=O)Nc3cc(OC)ccc3OC)c(C)o2)c1", "activity, positive = re-replication": "inactive: 1.25%"}
{"smiles": "C=CCOC(=O)C1=C[C@@H](c2ccc(Br)cc2)[C@H](CCCO)[C@@H](OCC)O1", "Potency": "inconclusive [activator, full curve, poor fit]"}
{"smiles": "CCCCc1ccc(NC(=O)CSc2nc(=O)n(CCN(CC)CC)c3c2CCC3)cc1", "activity, positive = re-replication": "inactive: 29.7%"}
{"smiles": "CC(C)(C)c1ccc(-n2ncc3c2CCCC3NC(=O)CCN2CCCO2)cc1", "note": "(configuration not stated)", "Potency": "inconclusive [activator, partial curve, poor fit]"}
{"smiles": "CN(C)c1nc(SCc2ccccc2Cl)nc2c1CCCC2", "Potency": "inconclusive [activator, single point]"}
{"smiles": "COC(=O)c1cc(S(=O)(=O)NCC2CCN(Cc3cccc(Cl)c3)CC2)c[nH]1", "activity, positive = re-replication": "inactive: -3.41%"}
{"smiles": "COc1cc(OC)cc(-c2cc3nc4c(c(N5CCN(c6ncccn6)CC5)n3n2)CCCC4)c1", "Potency": "inconclusive [activator, partial curve, poor fit]"}
{"smiles": "CC(=O)Nc1ccc(N2C(C(C)=O)=NN(c3ccccc3)C2c2cccs2)cc1", "note": "(configuration not stated)", "Potency": "inconclusive [activator, single point]"}
{"smiles": "O=C(COC(=O)c1cccc(C(=O)OCC(=O)NC2CCCCC2)n1)NC1CCCCC1", "Potency": "inconclusive [activator, single point]"}
{"smiles": "Cc1[nH]n(-c2cccc(Cl)c2)c(=O)c1/C=N/n1c(C)nc2ccccc2c1=O", "Potency": "inconclusive [activator, single point]"}
{"smiles": "O=C(NCCCN1CCOCC1)c1ccc(Sc2ccccc2Cl)c([N+](=O)[O-])c1", "Potency": "inconclusive [activator, single point]"}
{"smiles": "CC(C)(C)[C@@H]1CCC(=O)N(CC[C@H](Sc2ccc(Br)cc2)c2ccccc2)CC1", "Potency": "inconclusive [activator, single point]"}
{"smiles": "CCn1c(O)c(/C=C2\\C=Nc3ccccc32)sc1=O", "Potency": "inconclusive [activator, single point]"}
{"smiles": "CCC(=NCCc1c(C)[nH]c2ccccc12)C1=C(O)CC(c2ccccc2)CC1=O", "note": "(configuration not stated)", "Potency": "active: 4.11 µM"}
{"smiles": "Cc1ccc(/C=C/C(=O)N2CCc3ccccc32)o1", "activity, positive = re-replication": "inactive: 13.9%"}
{"smiles": "COc1cccc(CN2CCCC(C(=O)N3CCCCC3)C2)c1", "note": "(configuration not stated)", "Potency": "inconclusive [activator, single point]"}
{"smiles": "Cc1ccc(C(=O)N/N=C\\c2ccc([N+](=O)[O-])o2)cn1", "Potency": "inconclusive [activator, partial curve, poor fit]"}
{"smiles": "CCc1ccc(S(=O)(=O)/N=C2\\C=C(Nc3ccc(O)cc3)C(=O)c3ccccc32)cc1", "Potency": "active: 3.66 µM"}
{"smiles": "Cc1ccc(S(=O)(=O)N2CCN(Cc3ccccc3C(F)(F)F)CC2)cc1", "activity, positive = re-replication": "inactive: 15.7%"}
{"smiles": "O/N=C/c1ccccc1Oc1ccc(Cl)cc1", "Potency": "inconclusive [activator, single point]"}
{"smiles": "S=C(NC1CCCCC1)N1CCN(C/C=C/c2ccccc2)CC1", "Potency": "inconclusive [activator, single point]"}
{"smiles": "CCCC(=O)Nc1nnc(/C=C/c2ccccc2)s1", "Potency": "inconclusive [activator, full curve, poor fit]"}
{"smiles": "CCOC(=O)c1cc2sccc2n1Cc1ccccc1", "activity, positive = re-replication": "inactive: 14%"}
{"smiles": "O=C1OC(c2ccccc2)=C/C1=C\\N1CCOCC1", "Potency": "inconclusive [activator, single point]"}
{"smiles": "CCn1c2ccccc2c2nnc(SCC(=O)Nc3c(C)n(C)n(-c4ccccc4)c3=O)nc21", "activity, positive = re-replication": "inactive: 20.4%"}
{"smiles": "CC(C)(CCl)C(=O)Nc1ccc(Sc2ccc(F)cc2)cc1", "Potency": "inconclusive [activator, single point]"}
{"smiles": "CC1CCCC/C1=N\\NC(=S)NCCc1ccccc1", "note": "(configuration not stated)", "Potency": "inconclusive [activator, partial curve, poor fit]"}
{"smiles": "COc1ccc2c(c1)Cc1sc(NC(=O)c3ccccc3)nc1-2", "Potency": "inconclusive [activator, full curve, poor fit]"}
{"smiles": "COc1ccc(/C(C)=N/OCC(=O)Nc2nc3ccccc3s2)cc1", "activity, positive = re-replication": "inactive: 8.02%"}
{"smiles": "Cc1cccc(-c2cc(C(=O)Nc3c(C)n(C)n(-c4ccccc4)c3=O)c3ccccc3n2)c1", "Potency": "inconclusive [activator, partial curve, poor fit]"}
{"smiles": "NC(=S)N/N=C1/CCSc2ccc3ccccc3c21", "Potency": "inconclusive [activator, single point]"}
{"smiles": "COc1ccc(NC(=O)NCc2cccn2C)c(OC)c1", "activity, positive = re-replication": "inactive: -0.397%"}
{"smiles": "CCN(CC)c1ccc(NC(=O)CCS(=O)(=O)c2cccc3nsnc23)c(C)c1", "Potency": "inconclusive [activator, partial curve, poor fit]"}
{"smiles": "CCOC(=O)N1CCC(Nc2c(NCCN3CCN(c4ccccc4F)CC3)c(=O)c2=O)CC1", "Potency": "inconclusive [activator, partial curve, poor fit]"}
{"smiles": "CCCCCC(=O)Nc1ccc(C(=O)CN2C(=O)NC3(CCCCCC3)C2=O)cc1", "Potency": "inconclusive [activator, partial curve, poor fit]"}
{"smiles": "CCC(C)C(=O)Nc1nc(C)c(-c2csc(Nc3ccccc3OC)n2)s1", "note": "(configuration not stated)", "Potency": "inconclusive [activator, partial curve, poor fit]"}
{"smiles": "CCOC(=O)c1ccc(NC(=S)Nc2cccc(C)n2)cc1", "Potency": "inconclusive [activator, single point]"}
{"smiles": "CN(C)c1ccc(C2/C(=C(/O)c3ccc(Br)cc3)C(=O)C(=O)N2C)cc1", "note": "(configuration not stated)", "Potency": "inconclusive [activator, partial curve, poor fit]"}
